Measurements: the antibiotic and cytotoxicity screens of Wong et al. (2023)
The other results are listed elsewhere or left out.

Each compound was assayed on S. aureus RN4220 (assay: growth inhibition call (relative growth <= 0.2)). Conditions: 50 µM.

Growth inhibition call, inactive:
Cc1ccc(C2(CN3CCN4C(=O)CN(C)C(=O)[C@H]4C3)CCNCC2)nc1, C[C@@H]1CCCCO[C@@H](CN(C)Cc2ccccc2)[C@H](C)CN([C@@H](C)CO)C(=O)c2cc(NC(=O)c3ccncc3)ccc2O1, Cc1ccc(S(=O)(=O)N(C)C[C@H]2Oc3ccc(NS(=O)(=O)c4ccc(F)cc4)cc3CC(=O)N([C@@H](C)CO)C[C@@H]2C)cc1, O=C(C[C@@H]1CC[C@H]2[C@@H](COC[C@H](O)CN2C(=O)c2cnccn2)O1)N1CCN(c2ccccc2)CC1, O=C(C[C@@H]1C[C@@H]2c3cc(NC(=O)Nc4ccccc4F)ccc3O[C@@H]2[C@@H](CO)O1)NCc1ccc(Oc2ccccc2)cc1, CCCNC(=O)N1C[C@]2(CN(C2)S(=O)(=O)c2cccc(c2)OC)c2c(n(c3cc(ccc23)OC)C)[C@@H]1CO, Cc1cc(C(=O)Nc2cccc3c2O[C@H](CN(C)C(=O)Nc2c(C)noc2C)[C@@H](C)CN([C@@H](C)CO)C3=O)n(C)n1, C/C(=C\C(=O)OCCCCCCCCC(=O)O)C[C@@H]1OC[C@H](C[C@@H]2O[C@H]2[C@@H](C)[C@H](C)O)[C@@H](O)[C@H]1O, COc1ccc(S(=O)(=O)N(C)C[C@H]2Oc3ccc(NC(=O)C4CC4)cc3C(=O)N([C@@H](C)CO)C[C@H]2C)cc1, CO[C@@H]1CN(C)C(=O)c2ccc(NC(=O)Nc3cccc(Cl)c3)cc2OC[C@@H](C)N(C(=O)Nc2c(C)noc2C)C[C@H]1C, NCCCn1c2c(c3ccccc31)CCCC2, COc1ccccc1-c1ccc2c(c1)O[C@@H](CN(C)CC1CCOCC1)[C@H](C)CN([C@@H](C)CO)S2(=O)=O, O=C(N/N=C/[C@H](O)[C@@H](O)[C@H](O)[C@H](O)CO)c1ccccc1O, Cc1ccc(S(=O)(=O)Nc2ccc3c(c2)CC(=O)N([C@H](C)CO)C[C@H](C)[C@H](CN(C)Cc2ccc(Cl)c(Cl)c2)O3)cc1, COC(=O)c1sc2ncn(N)c(=O)c2c1C, C[C@@H]1CCCCO[C@@H](CN(C)S(=O)(=O)c2ccc(F)cc2)[C@@H](C)CN([C@@H](C)CO)C(=O)c2cc(NC(=O)c3ccccc3)ccc2O1, C[C@@H]1CN([C@@H](C)CO)C(=O)c2cccc(NC(=O)c3ccc(-c4nccs4)cc3)c2O[C@@H]1CN(C)Cc1ccc(C(=O)O)cc1, CC(C)CC#Cc1ccc2c(c1)O[C@@H](CN(C)C(=O)Cc1ccncc1)[C@@H](C)CN([C@@H](C)CO)S2(=O)=O, C[C@@H]1CN([C@H](C)CO)C(=O)c2cc(NS(=O)(=O)c3ccc(F)cc3)ccc2O[C@@H]1CN(C)C(=O)Nc1cccc2ccccc12, O=C(N[C@H]1CC[C@@H](CC(=O)N2CCOCC2)O[C@@H]1CO)c1ccc2c(c1)OCO2, C[C@H](CO)N1C[C@H](C)[C@H](CN(C)S(=O)(=O)c2ccc(F)cc2)OCCCC[C@H](C)Oc2ccc(NC(=O)C3CCCCC3)cc2C1=O, Cc1ncc(NC(=O)c2ccc(CN3CCN(C)CC3)c(C(F)(F)F)c2)cc1Nc1nccc(-c2cccnc2)n1, COc1ccc(S(=O)(=O)N(C)C[C@H]2Oc3c(NC(=O)C4CC4)cccc3C(=O)N([C@H](C)CO)C[C@H]2C)cc1, C[C@H](CO)N1C[C@H](C)[C@H](CN(C)S(=O)(=O)c2ccccc2)Oc2ccc(NC(=O)CCCN(C)C)cc2C1=O, Nc1ncnc2c1ncn2[C@H]1O[C@@H](COP(=O)(O)OP(=O)(O)OP(=O)(O)O)[C@@H](O)[C@@H]1O, CN1CCN(C(=O)C[C@H]2CC[C@@H]3[C@H](COC[C@@H](O)CN3C(=O)C3CC3)O2)CC1, C[C@@H]1CN([C@H](C)CO)S(=O)(=O)c2ccc(C#CCC3CCCC3)cc2O[C@@H]1CN(C)C(=O)c1cnccn1, C[C@@H]1CN([C@@H](C)CO)C(=O)c2cc(NC(=O)Nc3cccc4ccccc34)ccc2O[C@@H](C)CCCCO[C@H]1CN(C)C(=O)CCCN(C)C, CC(C)C#Cc1ccc2c(c1)O[C@@H](CN(C)S(=O)(=O)c1cn(C)cn1)[C@H](C)CN([C@H](C)CO)S2(=O)=O, O=C(C[C@H]1CC[C@H](NC(=O)CN2CCOCC2)[C@H](CO)O1)NCCc1ccncc1, C[C@@H]1CN([C@@H](C)CO)C(=O)CCCn2cc(nn2)CO[C@@H]1CN(C)S(=O)(=O)c1ccc2c(c1)OCCCO2, C[C@@H]1CN([C@@H](C)CO)C(=O)c2cccc(NC(=O)Nc3ccc4c(c3)OCO4)c2O[C@@H]1CN(C)C(=O)Nc1cccc2ccccc12, Cl.O=C1CC2(CCCC2)CC(=O)N1CCCCN1CCN(c2ncccn2)CC1, COCC(=O)Nc1ccc2c(c1)C(=O)N(C)[C@@H]1CC[C@H](CC(=O)NC3Cc4ccccc4C3)O[C@@H]1CO2, C[C@@H]1CN([C@@H](C)CO)C(=O)c2cc(NC(=O)C3CCCCC3)ccc2O[C@@H](C)CCCCO[C@H]1CN(C)C(=O)CCC(F)(F)F, Cc1cc(C(=O)Nc2cccc3c2O[C@H](CN(C)Cc2ccc(C(=O)O)cc2)[C@@H](C)CN([C@@H](C)CO)C3=O)n(C)n1, C[C@@H]1CN([C@@H](C)CO)C(=O)CCCn2nncc2CO[C@@H]1CN(C)S(=O)(=O)c1ccc(C#N)cc1, Cc1ccc(S(=O)(=O)N(C)C[C@@H]2OCCCC[C@@H](C)Oc3ccc(NC(=O)NC4CCCCC4)cc3C(=O)N([C@@H](C)CO)C[C@@H]2C)cc1, Cc1ccc(S(=O)(=O)N(C)C[C@H]2Oc3ccc(NC(=O)c4ccncc4)cc3CC(=O)N([C@@H](C)CO)C[C@H]2C)cc1, Nc1cc(C(Cl)=C(Cl)Cl)c(S(N)(=O)=O)cc1S(N)(=O)=O
